Test results published in US20260167737A1 (BIGHAT BIOSCIENCES, published 2026).

What was measured:
Experiment in all cases: cell-based or functional assay
[1] = target: T1, CDH17 (UniProt Q12864 23-787, limits assumed)
T1 sequence (looked up): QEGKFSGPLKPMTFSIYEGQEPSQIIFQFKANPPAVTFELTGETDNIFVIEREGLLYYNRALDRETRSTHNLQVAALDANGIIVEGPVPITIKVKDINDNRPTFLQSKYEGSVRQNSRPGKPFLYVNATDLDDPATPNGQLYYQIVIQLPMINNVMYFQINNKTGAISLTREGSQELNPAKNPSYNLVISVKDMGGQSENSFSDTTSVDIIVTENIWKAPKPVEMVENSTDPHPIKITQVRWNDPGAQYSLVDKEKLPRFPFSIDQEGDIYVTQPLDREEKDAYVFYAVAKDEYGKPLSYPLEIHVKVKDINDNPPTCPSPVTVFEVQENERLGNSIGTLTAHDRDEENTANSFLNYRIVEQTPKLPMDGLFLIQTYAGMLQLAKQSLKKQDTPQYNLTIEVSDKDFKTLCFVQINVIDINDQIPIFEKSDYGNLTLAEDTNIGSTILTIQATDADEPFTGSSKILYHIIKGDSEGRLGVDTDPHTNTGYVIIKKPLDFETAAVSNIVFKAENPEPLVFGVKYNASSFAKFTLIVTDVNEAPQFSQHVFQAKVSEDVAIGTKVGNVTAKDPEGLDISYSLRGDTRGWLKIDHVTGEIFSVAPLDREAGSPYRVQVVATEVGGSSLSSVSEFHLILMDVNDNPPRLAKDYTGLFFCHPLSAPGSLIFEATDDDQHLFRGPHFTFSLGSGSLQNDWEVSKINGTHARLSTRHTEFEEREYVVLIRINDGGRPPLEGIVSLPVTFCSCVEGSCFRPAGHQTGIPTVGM

[2] = target: T2, CDH17 on SNU16 cells (UniProt Q12864 23-832, limits assumed)
T2 sequence (looked up): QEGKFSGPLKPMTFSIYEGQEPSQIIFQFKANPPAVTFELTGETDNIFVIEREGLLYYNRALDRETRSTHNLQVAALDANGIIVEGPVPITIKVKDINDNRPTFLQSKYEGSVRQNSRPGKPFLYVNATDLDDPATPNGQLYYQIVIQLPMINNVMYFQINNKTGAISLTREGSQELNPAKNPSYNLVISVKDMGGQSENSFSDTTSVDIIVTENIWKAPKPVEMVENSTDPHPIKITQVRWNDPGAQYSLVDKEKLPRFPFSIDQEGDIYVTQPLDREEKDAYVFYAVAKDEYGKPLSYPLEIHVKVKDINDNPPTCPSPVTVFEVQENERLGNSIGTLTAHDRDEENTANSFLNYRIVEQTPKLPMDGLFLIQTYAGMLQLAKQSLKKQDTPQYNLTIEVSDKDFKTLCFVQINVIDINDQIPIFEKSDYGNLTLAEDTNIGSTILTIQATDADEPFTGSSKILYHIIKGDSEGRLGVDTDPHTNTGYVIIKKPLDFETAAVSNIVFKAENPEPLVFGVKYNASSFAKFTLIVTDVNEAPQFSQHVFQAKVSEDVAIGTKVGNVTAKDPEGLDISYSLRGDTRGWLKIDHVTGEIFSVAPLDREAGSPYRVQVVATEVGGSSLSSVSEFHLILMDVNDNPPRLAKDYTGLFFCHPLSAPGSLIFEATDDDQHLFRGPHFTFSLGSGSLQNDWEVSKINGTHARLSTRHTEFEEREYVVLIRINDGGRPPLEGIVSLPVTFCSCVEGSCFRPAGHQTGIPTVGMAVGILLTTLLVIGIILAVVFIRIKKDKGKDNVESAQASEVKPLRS

[3] = target: T1, CDH17; remark: listed apart in the source

B1: BHB156-vedotin (Fc fusion)
VHH-Fc chain: QVQLQESGGGLVQPGGSTRLSCVSSRTFSYYDMGWFRQAPGKEREFVALLSWRGNNAEYSDSVMGRFTVSRGNTQNSVNLQMNNLKPEDTGIYYCAVTYGGARSVRSWGQGTQVTVSSGGGGS[here human IgG1 Fc with changes without letters]
modifications: mc-vc-PAB-MMAE (vedotin) on reduced interchain cysteines, average DAR about 4
[1]
  cytotoxicity IC50, AsPC1 (PDAC) cells, 96 h, CellTiter-Glo: 0.178 nM
  cytotoxicity IC50, CAPAN2 (PDAC) cells (ABC <LLOD), 96 h, CellTiter-Glo: > 100 nM
  cytotoxicity IC50, HCT15 (CRC) cells (ABC <LLOD), 96 h, CellTiter-Glo: > 100 nM
  cytotoxicity IC50, HT115 (CRC) cells (ABC <LLOD), 96 h, CellTiter-Glo: > 100 nM
  cytotoxicity IC50, IM95 (gastric) cells, 96 h, CellTiter-Glo: 0.664 nM
  cytotoxicity IC50, LoVo (CRC) cells (ABC <LLOD), 96 h, CellTiter-Glo: > 100 nM
  cytotoxicity IC50, MKN 45 (gastric) cells (ABC <LLOD), 96 h, CellTiter-Glo: > 100 nM
  cytotoxicity IC50, NCI-H508 (CRC) cells, 96 h, CellTiter-Glo: 0.0898 nM
  cytotoxicity IC50, OCUM1 (gastric) cells, 96 h, CellTiter-Glo: 0.55 nM
  cytotoxicity IC50, SW403 (CRC) cells, 96 h, CellTiter-Glo: 0.0367 nM
  cytotoxicity IC50, SW837 (CRC) cells (ABC <LLOD), 96 h, CellTiter-Glo: > 100 nM
  cytotoxicity IC50 of the negative control (asterisk: BHB156-vedotin with ≥10-fold molar excess of free unconjugated VHH-Fc), HCT15 (CRC) cells (ABC <LLOD): > 100 nM
  cytotoxicity IC50 of the negative control (asterisk: BHB156-vedotin with ≥10-fold molar excess of free unconjugated VHH-Fc), HT115 (CRC) cells (ABC <LLOD): > 100 nM
  cytotoxicity IC50 of the negative control (asterisk: BHB156-vedotin with ≥10-fold molar excess of free unconjugated VHH-Fc), IM95 (gastric) cells: 43 nM
  cytotoxicity IC50 of the negative control (asterisk: BHB156-vedotin with ≥10-fold molar excess of free unconjugated VHH-Fc), MKN 45 (gastric) cells (ABC <LLOD): > 100 nM
  cytotoxicity IC50 of the negative control (asterisk: BHB156-vedotin with ≥10-fold molar excess of free unconjugated VHH-Fc), OCUM1 (gastric) cells: 52 nM
[2]
  cytotoxicity IC50, SNU16 (gastric) cells, 96 h, CellTiter-Glo: 0.0498 nM
[3]
  cytotoxicity IC50, CXF269 (CRC) cells (ABC <LLOD): 113 nM
  cytotoxicity IC50, CXF280 (CRC) cells (ABC <LLOD): > 100 nM
  cytotoxicity IC50, CXF1103 (CRC) cells: 2 nM
  cytotoxicity IC50, GXA3011 (gastric) cells (ABC <LLOD): > 100 nM
  cytotoxicity IC50, GXA3013 (gastric) cells: 0.12 nM
  cytotoxicity IC50, GXA3023 (gastric) cells: 5.5 nM
  cytotoxicity IC50, GXA3067 (gastric) cells (ABC <LLOD): > 100 nM
  cytotoxicity IC50, GXA3080 (gastric) cells: 0.034 nM
  cytotoxicity IC50, GXF251 (gastric) cells (ABC <LLOD): > 100 nM
  cytotoxicity IC50, GXF1172 (gastric) cells (ABC <LLOD): > 100 nM
  cytotoxicity IC50 in the column 'IC50 isotype vedotin*' (asterisk per paragraph 279: BHB156-vedotin with >10-fold molar excess of free unconjugated VHH-Fc), CXF269 (CRC) cells (ABC <LLOD): 79.8 nM
  cytotoxicity IC50 in the column 'IC50 isotype vedotin*' (asterisk per paragraph 279: BHB156-vedotin with >10-fold molar excess of free unconjugated VHH-Fc), CXF280 (CRC) cells (ABC <LLOD): > 100 nM
  cytotoxicity IC50 in the column 'IC50 isotype vedotin*' (asterisk per paragraph 279: BHB156-vedotin with >10-fold molar excess of free unconjugated VHH-Fc), CXF1103 (CRC) cells: 65 nM
  cytotoxicity IC50 in the column 'IC50 isotype vedotin*' (asterisk per paragraph 279: BHB156-vedotin with >10-fold molar excess of free unconjugated VHH-Fc), GXA3011 (gastric) cells (ABC <LLOD): > 100 nM
  cytotoxicity IC50 in the column 'IC50 isotype vedotin*' (asterisk per paragraph 279: BHB156-vedotin with >10-fold molar excess of free unconjugated VHH-Fc), GXA3013 (gastric) cells: 22 nM
  cytotoxicity IC50 in the column 'IC50 isotype vedotin*' (asterisk per paragraph 279: BHB156-vedotin with >10-fold molar excess of free unconjugated VHH-Fc), GXA3023 (gastric) cells: > 100 nM
  cytotoxicity IC50 in the column 'IC50 isotype vedotin*' (asterisk per paragraph 279: BHB156-vedotin with >10-fold molar excess of free unconjugated VHH-Fc), GXA3067 (gastric) cells (ABC <LLOD): > 100 nM
  cytotoxicity IC50 in the column 'IC50 isotype vedotin*' (asterisk per paragraph 279: BHB156-vedotin with >10-fold molar excess of free unconjugated VHH-Fc), GXA3080 (gastric) cells: 3.4 nM
  cytotoxicity IC50 in the column 'IC50 isotype vedotin*' (asterisk per paragraph 279: BHB156-vedotin with >10-fold molar excess of free unconjugated VHH-Fc), GXF251 (gastric) cells (ABC <LLOD): > 100 nM
  cytotoxicity IC50 in the column 'IC50 isotype vedotin*' (asterisk per paragraph 279: BHB156-vedotin with >10-fold molar excess of free unconjugated VHH-Fc), GXF1172 (gastric) cells (ABC <LLOD): > 100 nM
